The list shows a part of the results. The full chains were built here from the parent and the listed change. Values near 0.05 are background.
B1: TEV protease; numbered along this chain (parent)
chain: MGESLFKGPRDYNPISSSICHLTNESDGHTTSLYGIGFGPFIITNKHLFRRNNGTLVVQSLHGVFKVKDTTTLQQHLVDGRDMIIIRMPKDFPPFPQKLKFREPQREERICLVTTNFQTKSMSSMVSDTSCTFPSGDGIFWKHWIQTKDGQCGSPLVSTRDGFIVGIHSASNFTNTNNYFTSVPKNFMELLTNQEAQQWVSGWRLNADSVLWGGHKVFMVKPEEPFQPVKEATQL

Variants of: B1
Test: raw area under fraction-flipped curve 0-4 h after induction (AUC4h, not background-subtracted), DNA-recorder readout of cleavage of the substrate (dimensionless); higher = more cleavage of the substrate by the protease variant
Details: temperature: 34 °C; time window: 0-4 h after rhamnose induction
Protocol: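 In vivo DNA recorder in E. coli TOP10(DE3) ΔrhaA at 34 °C. Each TEVp single-site mutant (parent TEVp 0) is paired with a single-site variant of the 7-mer TEVs (canonical ENLYFQ|S). The substrate sits between flexible linkers in a Bxb1-sfGFP-TEVs-SsrA fusion, so cleavage stabilises Bxb1 and speeds flipping of a recombination array, read by NGS. The value is the raw area under the fraction-flipped curve over 0-4 h after rhamnose induction (AUC4h), with ≥20 reads per time point. It is not background-subtracted; inactive controls average about 0.047.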
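Note: Bxb1 expression induced with 0.2% (w/v) L-rhamnose at OD600 near 0.5, cultures sampled hourly, flipped fraction per protease–substrate barcode pair counted by paired-end Illumina sequencing.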

| Variant | area with substrate EALYFQS | area with substrate EGLYFQS | area with substrate EHLYFQS | area with substrate EKLYFQS | area with substrate ELLYFQS | area with substrate EMLYFQS | area with substrate EQLYFQS | area with substrate ERLYFQS | area with substrate ESLYFQS | area with substrate EYLYFQS | area with substrate ECLYFQS | area with substrate EILYFQS | area with substrate EPLYFQS | area with substrate EVLYFQS | area with substrate EWLYFQS | area with substrate EDLYFQS | area with substrate EFLYFQS | area with substrate EELYFQS | area with substrate ETLYFQS |
| --- | --- | --- | --- | --- | --- | --- | --- | --- | --- | --- | --- | --- | --- | --- | --- | --- | --- | --- | --- |
| Q194D | 0.0939 | 0.102 | 0.122 | 0.144 | 0.11 | 0.129 | 0.154 | 0.137 | 0.108 | 0.117 |  |  |  |  |  |  |  |  |  |
| Q234P | 0.121 | 0.0922 |  | 0.0877 | 0.0897 |  |  | 0.087 | 0.0879 | 0.0632 | 0.098 | 0.0931 | 0.116 | 0.0912 | 0.09 |  |  |  |  |
| Q234E | 0.12 | 0.107 | 0.0527 | 0.0908 | 0.092 | 0.12 | 0.109 | 0.0929 | 0.13 |  | 0.095 | 0.0947 | 0.112 | 0.0984 |  | 0.168 |  |  |  |
| L205C | 0.112 |  | 0.0995 | 0.0833 |  |  | 0.0897 | 0.0807 |  |  | 0.0862 |  |  | 0.0786 |  |  | 0.101 |  |  |
| T30H |  |  |  | 0.1 | 0.0281 | 0.149 | 0.0997 | 0.0929 | 0.1 |  | 0.103 | 0.0844 | 0.139 | 0.1 | 0.0936 | 0.0964 | 0.0717 | 0.149 | 0.0976 |
| T30M |  | 0.0608 | 0.118 |  | 0.0933 |  | 0.128 | 0.128 | 0.134 |  | 0.11 | 0.0599 | 0.117 | 0.0923 |  |  |  |  |  |
| E189Q | 0.127 | 0.0909 |  |  |  |  | 0.121 | 0.0862 | 0.0065 |  | 0.101 |  | 0.113 | 0.0856 |  | 0.12 |  | 0.134 | 0.128 |
| W199T | 0.0704 |  |  | 0.0633 |  | 0.0653 | 0.0577 | 0.0954 | 0.0793 |  | 0.0694 | 0.057 | 0.0771 | 0.0397 |  | 0.0805 |  |  | 0.0794 |
| P14F |  | 0.0889 |  | 0.0554 | 0.0867 | 0.098 |  | 0.0888 | 0.0745 |  | 0.1 | 0.0868 | 0.0986 |  | 0.0942 | 0.13 |  | 0.104 |  |
| E223P | 0.0647 | 0.118 | 0.0823 | 0.12 |  | 0.0901 | 0.109 | 0.0864 | 0.104 |  |  | 0.0956 |  |  | 0.0876 |  |  |  |  |
| D208A | 0.123 | 0.0679 | 0.0765 | 0.073 | 0.088 |  | 0.0826 |  |  |  | 0.0763 |  |  |  |  |  | 0.0702 |  | 0.085 |
| V210I | 0.101 |  |  |  |  | 0.135 |  | 0.106 | 0.113 |  | 0.0589 |  |  | 0.102 | 0.0825 |  |  |  |  |
| V210W | 0.0969 |  | 0.141 | 0.0866 | 0.0756 |  |  |  |  | 0.102 | 0.0899 | 0.07 | 0.0891 | 0.0653 | 0.0873 | 0.109 | 0.114 |  |  |
| E195I | 0.0997 | 0.0646 |  |  |  | 0.084 |  | 0.0807 | 0.0919 |  | 0.12 | 0.0665 |  | 0.0855 | 0.0807 |  |  |  |  |
| I19D |  | 0.0348 | 0.0485 | 0.0441 |  | 0.045 | 0.0507 |  | 0.0471 | 0.0426 | 0.0477 | 0.0475 | 0.0463 | 0.0565 | 0.0334 | 0.0388 | 0.0458 | 0.0445 | 0.0626 |
| K230R | 0.0862 |  |  |  |  | 0.116 |  | 0.103 | 0.112 |  | 0.109 | 0.107 | 0.139 | 0.131 |  |  |  | 0.0975 | 0.146 |

| Variant | area with substrate EALYFQS | area with substrate EGLYFQS | area with substrate EHLYFQS | area with substrate EKLYFQS | area with substrate ELLYFQS | area with substrate EMLYFQS | area with substrate EQLYFQS | area with substrate ERLYFQS | area with substrate ESLYFQS | area with substrate EYLYFQS | area with substrate ECLYFQS | area with substrate EILYFQS | area with substrate EPLYFQS | area with substrate EVLYFQS | area with substrate EWLYFQS | area with substrate EDLYFQS | area with substrate EFLYFQS | area with substrate EELYFQS | area with substrate ETLYFQS |
| --- | --- | --- | --- | --- | --- | --- | --- | --- | --- | --- | --- | --- | --- | --- | --- | --- | --- | --- | --- |
| R204Y | 0.116 | 0.118 |  | 0.119 | 0.0911 |  | 0.136 | 0.0987 | 0.114 |  | 0.132 | 0.106 | 0.154 | 0.11 | 0.124 | 0.147 |  | 0.127 |  |
| L191W | 0.0845 |  | 0.0597 | 0.0981 |  |  | 0.0932 |  |  |  | 0.0856 |  | 0.113 | 0.0982 |  | 0.0854 |  |  |  |
| L191R | 0.0499 |  |  | 0.0542 |  | 0.0508 | 0.0757 | 0.0651 | 0.0562 | 0.0709 | 0.042 | 0.0445 |  | 0.0675 |  |  |  | 0.063 | 0.0517 |
| L191H | 0.0645 |  | 0.0572 | 0.0566 | 0.0488 | 0.0652 | 0.075 | 0.0619 | 0.0651 |  | 0.051 | 0.0585 |  |  | 0.0637 | 0.0763 | 0.0606 | 0.0635 | 0.0407 |
| Q197H | 0.146 |  |  |  | 0.0948 |  | 0.102 | 0.0894 |  |  |  | 0.0682 |  |  |  | 0.116 |  | 0.101 |  |
| Q197L | 0.142 | 0.093 |  | 0.0894 |  | 0.119 | 0.132 |  | 0.0952 |  | 0.102 | 0.0969 |  |  | 0.0968 | 0.0907 | 0.081 |  |  |
| V229N | 0.158 |  |  | 0.114 | 0.116 | 0.13 | 0.118 | 0.0906 | 0.106 | 0.103 | 0.107 | 0.107 | 0.15 | 0.0989 | 0.0924 |  |  |  | 0.173 |
| V229W | 0.11 | 0.113 | 0.122 | 0.091 | 0.0716 | 0.0428 | 0.118 |  | 0.115 |  | 0.0915 | 0.0949 | 0.0916 | 0.0814 | 0.0756 | 0.154 |  |  | 0.102 |
| T233A | 0.136 | 0.0901 | 0.116 |  |  |  |  | 0.0966 | 0.134 |  | 0.113 | 0.0908 |  | 0.103 |  |  |  |  |  |
| T233F | 0.101 | 0.0981 |  | 0.107 | 0.0742 | 0.148 | 0.0834 |  | 0.125 | 0.148 | 0.0875 |  |  | 0.101 | 0.102 | 0.107 |  | 0.105 |  |
| D27F |  |  |  |  |  |  | 0.0926 | 0.101 | 0.0924 | 0.116 | 0.0931 |  | 0.124 | 0.0877 | 0.076 |  |  |  |  |
| K7F |  |  |  | 0.117 |  |  |  |  | 0.0971 |  | 0.0817 | 0.105 |  |  |  |  |  |  |  |
| K7R |  | 0.0866 | 0.104 |  | 0.108 |  | 0.151 |  | 0.0804 |  | 0.139 | 0.0706 | 0.112 | 0.101 |  | 0.139 |  |  |  |
| A207F | 0.0638 |  | 0.101 |  | 0.0552 | 0.103 |  | 0.0934 | 0.101 |  | 0.0805 | 0.0724 | 0.0918 | 0.0822 |  | 0.115 |  |  | 0.0949 |
| P228I | 0.127 |  |  |  |  |  | 0.118 |  | 0.0753 |  | 0.0785 | 0.0256 |  |  |  |  |  |  |  |
| F226P | 0.108 |  |  | 0.0849 |  |  | 0.124 | 0.114 | 0.0607 |  |  |  | 0.169 | 0.103 | 0.108 | 0.155 |  |  |  |

From the supplement of paper PMC12217912
